In all, about 3,200 compounds went through this assay and about 110 (3.4%) showed an effect of 50% or more. This is one part of the list.
test system: T1, V. cholerae SAD30; set-up: species or system S. aureus MSSA476 (TSB) or V. cholerae SAD30 (LB); 384-well bacterial growth screen at 25 uM, OD600 relative to DMSO control; details: relative growth, OD600, LB; 25 µM; inhibitor
T1 construct: SAD30

Compound	% of control remaining [%]
CC(Cl)C(=O)NCc1nnc(-c2ccncc2F)s1 (stereo not drawn) [7-K18, 2-chloro-N-{[5-(3-fluoropyridin-4-yl)-1,3,4-thiadiazol-2-yl]methyl}propanamide]	77.317
Cn1cc(C=C(C#N)C(=O)Nc2ccc(Oc3ccccc3)cc2)cn1 [9-M10, 2-cyano-3-(1-methyl-1H-pyrazol-4-yl)-N-(4-phenoxyphenyl)prop-2-enamide]	88.8511
CC(Cl)C(=O)NCc1cnn2ccccc12 (stereo not drawn) [7-M13, 2-chloro-N-({pyrazolo[1,5-a]pyridin-3-yl}methyl)propanamide]	89.0798
CC(C)C(NC(=O)CCl)c1ccccc1 (stereo not drawn) [4-K11, 2-chloro-N-(2-methyl-1-phenylpropyl)acetamide]	94.8889
C=CC(=O)Nc1cc(C)cc(S(C)(=O)=O)c1 [3-F14, N-(3-methanesulfonyl-5-methylphenyl)prop-2-enamide]	94.3834
COc1ccccc1NC(=O)C(C#N)=Cc1ccco1 [8-H08, 2-cyano-3-(furan-2-yl)-N-(2-methoxyphenyl)prop-2-enamide]	61.5228
N#CC(=Cc1ccco1)C(=O)NS(=O)(=O)N1CCc2ccccc21 [9-J18, 2-cyano-N-(2,3-dihydro-1H-indole-1-sulfonyl)-3-(furan-2-yl)prop-2-enamide]	83.8205
C=CC(=O)NCc1nc(C2CC2)cs1 [2-A19, N-[(4-cyclopropyl-1,3-thiazol-2-yl)methyl]prop-2-enamide]	94.3646
C=CC(=O)NCC(C)c1ncc(C)s1 (stereo not drawn) [1-P10, N-[2-(5-methyl-1,3-thiazol-2-yl)propyl]prop-2-enamide]	86.1138
COCC1(NC(=O)C(C)Cl)CC=CCC1 (stereo not drawn) [6-J13, 2-chloro-N-[1-(methoxymethyl)cyclohex-3-en-1-yl]propanamide]	86.4537
N#CC(=Cc1ccc(Cl)c([N+](=O)[O-])c1)C(=O)N1CCCC1 [9-N05, 3-(4-chloro-3-nitrophenyl)-2-(pyrrolidine-1-carbonyl)prop-2-enenitrile]	91.1625
C=CC(=O)N1CCC(C(=O)N2CCC(C(=O)NCC(C)C)CC2)CC1 [3-C17, N-(2-methylpropyl)-1-[1-(prop-2-enoyl)piperidine-4-carbonyl]piperidine-4-carboxamide]	103.205
CC(C)NC(=O)C(C#N)=Cc1ccc(-c2ccc([N+](=O)[O-])cc2)o1 [8-I19, 2-cyano-3-[5-(4-nitrophenyl)furan-2-yl]-N-(propan-2-yl)prop-2-enamide]	66.1455
C=CC(=O)NCc1ncnn1-c1ccccc1 [3-H11, N-[(1-phenyl-1H-1,2,4-triazol-5-yl)methyl]prop-2-enamide]	91.2075
CC(NC(=O)C(C#N)=Cc1ccccc1)C12CC3CC(CC(C3)C1)C2 (stereo not drawn) [8-N20, N-[1-(adamantan-1-yl)ethyl]-2-cyano-3-phenylprop-2-enamide]	70.2243
Cn1cc(C(=O)CCl)cc1C(=O)C(Cl)(Cl)Cl [10-N22, 2,2,2-trichloro-1-[4-(2-chloroacetyl)-1-methyl-1H-pyrrol-2-yl]ethan-1-one]	78.083
Cl.O=C(CCl)NCC(c1ccccc1Cl)N1CCCC1 (stereo not drawn) [6-G17, 2-chloro-N-[2-(2-chlorophenyl)-2-(pyrrolidin-1-yl)ethyl]acetamide hydrochloride]	81.1451
Cc1cc(C(=O)C(C)Cl)c(C)n1Cc1ccco1 (stereo not drawn) [10-E06, 2-chloro-1-{1-[(furan-2-yl)methyl]-2,5-dimethyl-1H-pyrrol-3-yl}propan-1-one]	94.9153
O=S(=O)(CC=C(Cl)Cl)N1CCSSCC1 [10-P19, 5-(3,3-dichloroprop-2-ene-1-sulfonyl)-1,2,5-dithiazepane]	92.5774
N#CC(=Cc1cccc(-c2ccncc2)c1)C(=O)NCc1ccco1 [9-B06, 2-cyano-N-[(furan-2-yl)methyl]-3-[3-(pyridin-4-yl)phenyl]prop-2-enamide]	87.4915
COc1ccccc1CN(C)C(=O)CCl [6-C09, 2-chloro-N-[(2-methoxyphenyl)methyl]-N-methylacetamide]	89.7905
Cc1oc(C(=O)O)cc1C(=O)CCl [10-M21, 4-(2-chloroacetyl)-5-methylfuran-2-carboxylic acid]	100.37
CC(C)C(C(=O)O)N1C(=O)C=CC1=O (stereo not drawn) [10-I22, 2-(2,5-dioxo-2,5-dihydro-1H-pyrrol-1-yl)-3-methylbutanoic acid]	102.708
N#CC(=Cc1ccc(-c2ccc(F)cc2)o1)C(=O)NC1CCCCC1 [9-H17, 2-cyano-N-cyclohexyl-3-[5-(4-fluorophenyl)furan-2-yl]prop-2-enamide]	50.2379
CC(=O)Nc1c(C)cc(C)c(C(=O)CCl)c1C [10-A12, N-[3-(2-chloroacetyl)-2,4,6-trimethylphenyl]acetamide]	97.5648
N#CCCSc1ccccc1NC(=O)CCl [6-N12, 2-chloro-N-{2-[(2-cyanoethyl)sulfanyl]phenyl}acetamide]	88.5771
C=CC(=O)N1CCOC(c2nccs2)C1 (stereo not drawn) [3-H09, 1-[2-(1,3-thiazol-2-yl)morpholin-4-yl]prop-2-en-1-one]	92.0897
C=CC(=O)NCc1noc(-c2cccs2)n1 [3-H15, N-{[5-(thiophen-2-yl)-1,2,4-oxadiazol-3-yl]methyl}prop-2-enamide]	89.0902
C=CC(=O)N1CCCCC(S(C)(=O)=O)C1 (stereo not drawn) [2-E17, 1-(3-methanesulfonylazepan-1-yl)prop-2-en-1-one]	92.6662
O=C(CCl)NCCc1ccc(Cl)cc1Cl [6-M16, 2-chloro-N-[2-(2,4-dichlorophenyl)ethyl]acetamide]	96.0091

— PMC11995724, “Antibiotic target discovery by integrated phenotypic and activity-based profiling of electrophilic fragments” (Cell chemical biology, 2025)
